Experimental data: the supplement of paper PMC3334620
Over roughly 33,000 sequences, “E-score (-0.5 to 0.5)” has its median near -0.04; the highest 2% begin near 0.36. Some of the results follow.

Target: T1, Hmlalpha2 (UniProt P0CY09)
T1 sequence: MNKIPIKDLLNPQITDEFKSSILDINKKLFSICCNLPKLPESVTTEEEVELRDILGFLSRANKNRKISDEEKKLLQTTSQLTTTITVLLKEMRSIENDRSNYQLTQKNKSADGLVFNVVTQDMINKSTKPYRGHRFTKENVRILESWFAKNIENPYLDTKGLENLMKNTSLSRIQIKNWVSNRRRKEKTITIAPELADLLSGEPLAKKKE
Assay: PBM E-score (8-mer binding enrichment) (E-score (-0.5 to 0.5)); higher = stronger / more preferred TF binding; most listed sequences are background and not binding sites
Conditions: protein concentration: 200 nM; construct: GST-full length
Procedure, shortened: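 PURExpress in vitro transcription/translation supplied GST-tagged yeast transcription factors, either full-length or DNA-binding domain. Applied at about 100-200 nM to universal all-10-mer Agilent arrays double-stranded by primer extension, the bound protein was detected with fluorescent anti-GST. E-scores, modified Wilcoxon-Mann-Whitney statistics, were given by the Universal PBM Analysis Suite to ungapped eight-base words pooled with their reverse complements after masliner normalisation.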

Compared with AATTCGCC, GCGGGCAA is lower in “PBM E-score” value: 0.0749 for the first, -0.0844 for the second.

Compared with ATAGCTGC, CATTCGTC is lower in “PBM E-score” value: 0.0853 for the first, 0.0074 for the second.

Compared with CTAAGTCA, GGTTGGCA is lower in “PBM E-score” value: -0.0652 for the first, -0.1 for the second.

First: CGGGAACA
Second: AAATAGAG
The “PBM E-score” value of the first is lower: 0.145 for the first, 0.149 for the second.

Going from CCAAGCTA to GACGCCAA, the “PBM E-score” value falls from -0.0808 to -0.122.

Compared with AACGACAG, GAAGAGTA is higher in “PBM E-score” value: 0.0793 for the first, 0.109 for the second.

Going from CCCAGAAA to GGGCAAAC, the “PBM E-score” value falls from -0.0348 to -0.217.

First: TAGCCGGA
Second: CTCGGCAC
The “PBM E-score” value of the first is higher: -0.132 for the first, -0.14 for the second.

Compared with ACGTGTGG, CGTTCTGC is lower in “PBM E-score” value: 0.136 for the first, 0.0488 for the second.

Going from AAGGCTAC to AGTTGTGG, the “PBM E-score” value rises from -0.0947 to 0.0715.

Compared with ACCAAGCC, AAACGAGC is higher in “PBM E-score” value: 0.0443 for the first, 0.202 for the second.

Going from ACACGTCT to CTTGTACA, the “PBM E-score” value rises from 0.368 to 0.403.

First: ATTCACCA
Second: CTACACCA
The “PBM E-score” value of the first is lower: 0.0468 for the first, 0.165 for the second.

Going from CCAACATC to AAACCGCT, the “PBM E-score” value falls from 0.0583 to -0.137.

Going from ACATGGTC to CCTGAGCC, the “PBM E-score” value falls from 0.308 to -0.329.

First: AGTTTAAT
Second: TCTTGGCA
The “PBM E-score” value of the first is higher: 0.165 for the first, -0.00388 for the second.

Compared with AATCTAAG, CATCCGTA is lower in “PBM E-score” value: 0.0435 for the first, -0.0518 for the second.

Going from CCGCCAAG to CACACGTG, the “PBM E-score” value rises from -0.198 to 0.289.

Compared with GAGCACCA, ACAAGACG is higher in “PBM E-score” value: -0.211 for the first, 0.102 for the second.

Going from CGCCTGGC to AGGGGTGG, the “PBM E-score” value falls from -0.0832 to -0.405.

Compared with GATCAAGC, CAAGACTG is lower in “PBM E-score” value: 0.134 for the first, 0.0396 for the second.

Compared with GGTGGAGA, CAATAGTG is higher in “PBM E-score” value: -0.326 for the first, -0.0769 for the second.

Going from CAGATTGA to GGAAAGCA, the “PBM E-score” value falls from 0.00811 to -0.112.

First: CTGGTGAC
Second: AGAAACTG
The “PBM E-score” value of the first is lower: -0.28 for the first, 0.00819 for the second.

Going from GGCAATAA to CTCCTGCC, the “PBM E-score” value falls from -0.0126 to -0.274.

Compared with CGAACTGC, CGACTTAA is higher in “PBM E-score” value: -0.08 for the first, 0.118 for the second.

Going from TGTCGAAA to ATCTAGTG, the “PBM E-score” value falls from 0.315 to -0.0896.

Compared with AGTAAGGG, ATTGGAAG is higher in “PBM E-score” value: -0.0977 for the first, -0.0294 for the second.

Going from GCACAATA to ATGTATCC, the “PBM E-score” value rises from 0.0119 to 0.294.

Compared with GATGCGAA, GGCTCGCA is lower in “PBM E-score” value: -0.0115 for the first, -0.23 for the second.

Compared with ACCCTGCC, ATACCATG is higher in “PBM E-score” value: -0.298 for the first, 0.189 for the second.

Going from ACAAATCT to AGGAATAA, the “PBM E-score” value falls from 0.146 to 0.0409.

Compared with CCGATTTA, ACCTAAGA is higher in “PBM E-score” value: -0.0594 for the first, 0.127 for the second.

First: GATCCTCA
Second: AGGGCACA
The “PBM E-score” value of the first is higher: -0.0487 for the first, -0.173 for the second.

Compared with AGCATGAT, CAGTCTCA is lower in “PBM E-score” value: 0.0873 for the first, -0.0494 for the second.

First: ATGCCAGC
Second: GGGATCCC
The “PBM E-score” value of the first is higher: -0.0679 for the first, -0.263 for the second.

Compared with AGTAACAT, ATGGACGC is lower in “PBM E-score” value: 0.295 for the first, 0.114 for the second.

First: AGACGTAG
Second: ACCTACGC
The “PBM E-score” value of the first is lower: 0.0145 for the first, 0.0927 for the second.

Going from AAGGCCGA to CGCGAACG, the “PBM E-score” value rises from -0.128 to -0.0434.

First: AGCTGACC
Second: GAATAGGC
The “PBM E-score” value of the first is higher: -0.141 for the first, -0.168 for the second.

Compared with CGGCCTCC, AAACGATC is higher in “PBM E-score” value: -0.3 for the first, -0.0778 for the second.

First: GCTGGAAA
Second: CATTTCAA
The “PBM E-score” value of the first is lower: 0.0463 for the first, 0.18 for the second.

First: GAGGCATA
Second: TGCCTGAA
The “PBM E-score” value of the first is lower: -0.149 for the first, 0.0147 for the second.

Compared with AATCTCCG, AGGAATAG is higher in “PBM E-score” value: -0.278 for the first, -0.0262 for the second.

Compared with CTCCGATC, ACTCACAG is higher in “PBM E-score” value: -0.266 for the first, -0.126 for the second.

Going from CTCGGCCC to ATCGCCTC, the “PBM E-score” value rises from -0.296 to -0.0718.

Compared with ATAAACCA, AAAGTATC is higher in “PBM E-score” value: 0.0582 for the first, 0.119 for the second.

Compared with ACTGCCGG, AGTGCTTC is higher in “PBM E-score” value: -0.241 for the first, -0.156 for the second.

First: AAAACTTC
Second: GGGATGAA
The “PBM E-score” value of the first is higher: 0.102 for the first, -0.274 for the second.

First: ACTACTGA
Second: GAAGGTGA
The “PBM E-score” value of the first is higher: -0.00815 for the first, -0.113 for the second.

First: AGCATTAC
Second: CTCGGACA
The “PBM E-score” value of the first is higher: 0.254 for the first, -0.0617 for the second.

Compared with CTCTGCCA, GCATACCC is higher in “PBM E-score” value: -0.219 for the first, -0.132 for the second.

First: CAAACGTC
Second: CCTAACTC
The “PBM E-score” value of the first is higher: -0.178 for the first, -0.212 for the second.

Going from GCTCGTTA to ATATTAAC, the “PBM E-score” value rises from 0.11 to 0.277.

First: ATAACAAC
Second: CGTAGGCA
The “PBM E-score” value of the first is higher: 0.236 for the first, -0.112 for the second.

Going from AATGGCTC to CCACAATA, the “PBM E-score” value falls from 0.00118 to -0.16.

First: CTAATTGA
Second: GCAATCGC
The “PBM E-score” value of the first is higher: 0.112 for the first, -0.233 for the second.

Going from ATCTGATA to ATTGTCTA, the “PBM E-score” value rises from -0.205 to 0.207.

First: GCGGTAAA
Second: CCCGCCCG
The “PBM E-score” value of the first is higher: 0.258 for the first, -0.103 for the second.

Compared with ACCTCCCC, ACGCTCCA is higher in “PBM E-score” value: -0.162 for the first, 0.0165 for the second.

First: ATACCTCC
Second: AACATACC
The “PBM E-score” value of the first is lower: -0.216 for the first, 0.359 for the second.

Compared with TCTCCGAA, AGATTGAA is higher in “PBM E-score” value: 0.0132 for the first, 0.173 for the second.

Going from ACAGGATA to TCATACCA, the “PBM E-score” value falls from 0.134 to 0.0697.

Going from CGCGGTAG to CCTGACCA, the “PBM E-score” value falls from 0.0231 to -0.0469.

First: GCTACAGA
Second: CAGACTTA
The “PBM E-score” value of the first is lower: -0.0697 for the first, -0.0185 for the second.

Compared with ATCTCAAA, ACACTGAA is higher in “PBM E-score” value: 0.0591 for the first, 0.204 for the second.

First: GCGACAAA
Second: CATGGGAG
The “PBM E-score” value of the first is higher: 0.0565 for the first, -0.101 for the second.

Going from CAAGACTA to GACTCCAA, the “PBM E-score” value falls from -0.0365 to -0.223.

First: TGTGGCAA
Second: GAACTGCA
The “PBM E-score” value of the first is higher: 0.0206 for the first, -0.0547 for the second.

Compared with GATATCAA, AGCGCTCG is lower in “PBM E-score” value: 0.039 for the first, -0.138 for the second.

Going from ACTCTGGG to CCTCGCAC, the “PBM E-score” value rises from -0.0823 to -0.0685.

First: TCTGACCA
Second: CAGGCCGA
The “PBM E-score” value of the first is higher: 0.0821 for the first, -0.0678 for the second.

First: CCCTCGGA
Second: ACAACGAT
The “PBM E-score” value of the first is lower: -0.122 for the first, 0.136 for the second.

Compared with CGACCCAG, CTTCTCAC is higher in “PBM E-score” value: -0.209 for the first, -0.193 for the second.

Going from AGCCGGCG to ACACGACA, the “PBM E-score” value rises from -0.235 to 0.412.

First: GTAGAGCA
Second: TCCGTAAA
The “PBM E-score” value of the first is lower: 0.117 for the first, 0.126 for the second.

Going from AAATCGAC to TCGATGCA, the “PBM E-score” value falls from 0.158 to -0.0973.

First: AATTGGGT
Second: GAGAGATC
The “PBM E-score” value of the first is higher: 0.134 for the first, -0.158 for the second.

Compared with CGTAGCAC, AAACGCTC is lower in “PBM E-score” value: 0.0715 for the first, -0.144 for the second.

First: CTGACGTC
Second: ATCGCCCA
The “PBM E-score” value of the first is higher: 0.0227 for the first, -0.267 for the second.

Going from CTTCGGAC to AGACAAGC, the “PBM E-score” value falls from 0.085 to -0.0459.

First: TGATACCA
Second: GCGGCGAC
The “PBM E-score” value of the first is higher: -0.00425 for the first, -0.168 for the second.

Compared with CCACCGGA, ACAACCAC is higher in “PBM E-score” value: -0.0874 for the first, 0.0618 for the second.

First: ATCATTGC
Second: ATGGATTA
The “PBM E-score” value of the first is lower: -0.194 for the first, -0.106 for the second.

Compared with ACATGGCT, CCTCATAA is lower in “PBM E-score” value: 0.33 for the first, -0.00147 for the second.

First: AGTTGGTG
Second: AATCGTCC
The “PBM E-score” value of the first is lower: -0.0628 for the first, 0.0645 for the second.
